# Assay results reported in the supplement of paper PMC11369174, “Proteome-scale characterisation of motif-based interactome rewiring by disease mutations” (Molecular Systems Biology, 2024).
# This is one part of the list. Single values of this set are uncertain.
# T1: TERF1_TRF__P54274_58_268
# T1 chain: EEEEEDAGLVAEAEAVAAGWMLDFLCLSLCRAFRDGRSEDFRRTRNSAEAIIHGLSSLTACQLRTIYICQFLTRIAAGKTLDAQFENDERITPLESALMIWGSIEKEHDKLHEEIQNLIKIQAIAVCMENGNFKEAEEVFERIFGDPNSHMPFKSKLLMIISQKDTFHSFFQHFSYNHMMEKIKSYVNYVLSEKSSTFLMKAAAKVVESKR
# T2: TLN1_PTB__Q9Y490_309_401
# T2 chain: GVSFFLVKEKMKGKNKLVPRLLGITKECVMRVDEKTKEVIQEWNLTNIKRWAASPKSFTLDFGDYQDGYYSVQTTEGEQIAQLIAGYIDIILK
# T3: TLN2_PTB__Q9Y4G6_312_417
# T3 chain: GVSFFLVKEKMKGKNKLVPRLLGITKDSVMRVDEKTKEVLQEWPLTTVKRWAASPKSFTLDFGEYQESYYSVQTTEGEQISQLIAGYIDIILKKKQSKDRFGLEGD
# Biological target: Src_SH3__P12931_87_144
# Test: mutation enrichment score (mutant vs wild-type peptide binding to bait); baits are purified protein domains named by gene / domain / UniProt id / residues; peptides come from disordered regions of human proteins; higher = mutation enhances binding relative to wild type
# Conditions: number of wild-type / mutant comparisons summed (bounds the score): 6; paper call: no_effect; wild-type window: …
row,Binder,mutation enrichment score
1,HSLSQNSSRLTTPRNSLTLPPIPAGISNMAVGDMSSMLTSL [S1555P S1555P],4
2,SLLHSLSQNSSRLTTPRNSLALPSIPAGISNMAVGDMSSML [T1552A T1552A],-2
3,GPEDDLDLGPFSLPELPLQTEDAADGEAEPVEESLAPPEEM [K2146E K2146E],-5
4,GPEDDLDLGPFSLPELPLQTQDAADGEAEPVEESLAPPEEM [K2146Q K2146Q],-3.2
5,HLPEVQLPKVPEMKLPKMPEVAVPEVRLPEVQLPKVSEMKL [M673V M673V],-1.7
6,APQPPFAQHPFVPGGPPPITLPTCPSTSTPPAGPGTSAQPP [P1049L P1049L],3

# Same assay, conditions: number of wild-type / mutant comparisons summed (bounds the score): 12; paper call: diminished; wild-type window: …
row,Binder,mutation enrichment score
1,TLQKSKRPIPISTTAPPVQTSLPVIPHQKDPALDTNGSLVA [P99S P99S],-6

# Same assay, conditions: number of wild-type / mutant comparisons summed (bounds the score): 12; paper call: no_effect; wild-type window: …
row,Binder,mutation enrichment score
1,SLLHSLSQNSSRLTTPRNSLSLPSIPAGISNMAVGDMSSML [T1552S T1552S],-1

# Biological target: T1, TERF1_TRF__P54274_58_268
# Test: as above
# Conditions: number of wild-type / mutant comparisons summed (bounds the score): 6; paper call: diminished; wild-type window: …
row,Binder,mutation enrichment score
1,GGEFWGELEVQRVKFLNYLSQNFYTLRFLALFLAFAINFIL [R4558Q R4558Q],-6
2,GGEFWGELEVQRVKFLNYLSWNFYTLRFLALFLAFAINFIL [R4558W R4558W],-6

# Same assay, conditions: number of wild-type / mutant comparisons summed (bounds the score): 6; paper call: enhanced; wild-type window: …
row,Binder,mutation enrichment score
1,PECPGPQLNTGTQLVLQHVQELLVKRFQHTIRSHKDFLAQI [A1357E A1357E],6

# Same assay, conditions: number of wild-type / mutant comparisons summed (bounds the score): 6; paper call: no_effect; wild-type window: …
row,Binder,mutation enrichment score
1,LPRWHMNDFFHSFLIVFRVLYGEWIETMWDCMEVAGQAMCL [C949Y C949Y],0
2,PRWHMNDFFHSFLIVFRVLCREWIETMWDCMEVAGQAMCLT [G950R G950R],0
3,RWKNVKVNFDNVGFGYLSLLLVATFKGWMDIMYAAVDSRNV [Q1427L Q1427L],0
4,RWKNVKVNFDNVGFGYLSLLPVATFKGWMDIMYAAVDSRNV [Q1427P Q1427P],3
5,EVEELSEPVLGDVRESTAFSGSLLPVKPVEIEIETPEQAKT [R155G R155G],2
6,TQTDFNELDLETLAPYIPMDREDFQLSPICPEERLLAENPQ [G537R G537R],-4
7,TQTDFNELDLETLAPYIPMDWEDFQLSPICPEERLLAENPQ [G537W G537W],-4
8,CSTQTDFNELDLETLAPYIPTDGEDFQLSPICPEERLLAEN [M535T M535T],-4
9,CSTQTDFNELDLETLAPYIPVDGEDFQLSPICPEERLLAEN [M535V M535V],-4
10,QCSTQTDFNELDLETLAPYILMDGEDFQLSPICPEERLLAE [P534L P534L],3.3

# Same assay, conditions: number of wild-type / mutant comparisons summed (bounds the score): 12; paper call: diminished; wild-type window: …
row,Binder,mutation enrichment score
1,PKKEEAGGEFWGELEVQRVKILNYLSRNFYTLRFLALFLAF [F4552I F4552I],-11
2,DFNELDLETLAPYIPMDGEDLQLSPICPEERLLAENPQSTP [F540L F540L],-7

# Same assay, conditions: number of wild-type / mutant comparisons summed (bounds the score): 12; paper call: no_effect; wild-type window: …
row,Binder,mutation enrichment score
1,DEATDGGGDNKEGEDSSVIHDDDKAIERLLDRNQDETEDTE [Y1249D Y1249D],-3

# Biological target: T2, TLN1_PTB__Q9Y490_309_401
# Test: as above
# Conditions: number of wild-type / mutant comparisons summed (bounds the score): 6; paper call: no_effect; wild-type window: …
row,Binder,mutation enrichment score
1,GLSEEETPLVDCNNAPLPRAVPSTWIENKLYGMSDPNWPGE [L1052V L1052V],-5.6
2,TETLALQRLGELGPPSPGLNLEQPQAARLSRTGLVEGLRKR [W3528L W3528L],0
3,RLVVLAIANTMDLPERIMMNWVSSRLGLTRMCFQPYTYSQL [R666W R666W],4

# Biological target: T3, TLN2_PTB__Q9Y4G6_312_417
# Test: as above
# Conditions: number of wild-type / mutant comparisons summed (bounds the score): 12; paper call: no_effect; wild-type window: …
row,Binder,mutation enrichment score
1,GLSEEETPLVDCNNAPLPRAVPSTWIENKLYGMSDPNWPGE [L1052V L1052V],-4.9
2,VMADLGERMVRENLKVWIYPKGTRNDNGDLLPFKKGAFYLA [E172K E172K],-4

# Biological target: T2, TLN1_PTB__Q9Y490_309_401
# Test: as above
# Conditions: number of wild-type / mutant comparisons summed (bounds the score): 12; paper call: diminished; wild-type window: …
row,Binder,mutation enrichment score
1,LVITYGLNAGAFYALSTLLNHMVIWHYPGEEVNAGRIGLTI [R333H R333H],-7
2,LVITYGLNAGAFYALSTLLNLMVIWHYPGEEVNAGRIGLTI [R333L R333L],-7

# Biological target: T3, TLN2_PTB__Q9Y4G6_312_417
# Test: as above
# Conditions: number of wild-type / mutant comparisons summed (bounds the score): 12; paper call: diminished; wild-type window: …
row,Binder,mutation enrichment score
1,LVITYGLNAGAFYALSTLLNHMVIWHYPGEEVNAGRIGLTI [R333H R333H],-8
2,LVITYGLNAGAFYALSTLLNLMVIWHYPGEEVNAGRIGLTI [R333L R333L],-8

# Same assay, conditions: number of wild-type / mutant comparisons summed (bounds the score): 6; paper call: no_effect; wild-type window: …
row,Binder,mutation enrichment score
1,AKLEAALGEAKKQLQDEMLRWVDAENRLQTMKEELDFQKNI [R190W R190W],1

# Biological target: USP7_MATH-TRAF__Q93009_53_206
# Test: as above
# Conditions: number of wild-type / mutant comparisons summed (bounds the score): 5; paper call: no_effect; wild-type window: …
# Sequence of USP7_MATH-TRAF__Q93009_53_206 (chain, as listed by the source): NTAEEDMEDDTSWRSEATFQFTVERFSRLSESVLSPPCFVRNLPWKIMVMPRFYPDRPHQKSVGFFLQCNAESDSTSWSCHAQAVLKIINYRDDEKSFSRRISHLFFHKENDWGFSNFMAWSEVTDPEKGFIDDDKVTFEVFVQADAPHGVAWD
row,Binder,mutation enrichment score
1,MLAASFSIAVVAYAIAVSVGEVYATKYDYTIDGNQEFIAFG [K369E K369E],4
2,QREQQRAKELENRQKKLEHADRHLLLRIQELEMQARAHGLS [N385D N385D],-3
3,QREQQRAKELENRQKKLEHASRHLLLRIQELEMQARAHGLS [N385S N385S],-3
4,SVDYIRKLQREQQRAKELENGQKKLEHANRHLLLRIQELEM [R377G R377G],-3
5,AAASPSAASPPLATAAAHTAMASASTTAPASSPADSPRPQA [I345M I345M],3
6,LHTKTYQASSQPGSTSKDLTTNNIPHLLSPKEAKSKTEFDF [N399T N399T],3
7,PSQPDPEHLDKPKLKAGGSVKSLRSSLSGQSSMSGQTVSTT [E509K E509K],-3
8,EHLDKPKLKAGGSVESLRSSPSGQSSMSGQTVSTTDSSTSN [L515P L515P],-2.3
9,PPPSQPDPEHLDKPKLKAGGAVESLRSSLSGQSSMSGQTVS [S507A S507A],-3
10,SRLPPAREGHPVYPQLRPGYFPIPVLHEGAENRQVHPFHVY [I94F I94F],-2
11,LHHHHGSHCSSSGDPAEYNLHSRTVLCGTCGQPADKASASG [R582H R582H],-2.9
12,GAQVGGPISSGSSASSVTVTHSYRSVGGSGGGSFGDNLVTR [R624H R624H],3
13,VMGKASTPGAAAQIQEVKEQQISGLLVAVLVGLSILMEPIL [R760Q R760Q],3
14,LERTCELIYLTQPSSSISTETNSALVLKVSWITFLLAKGEV [I185T I185T],-3
15,DSTYRKFSTKVTLNTVGHHHCPPPHQASVSGIQAELLTFPN [R124C R124C],2.8
